According to the supplement of paper PMC10126150:
Sequences with one replicate were seen in a single cluster, so their values are uncertain.

Tested on: ATP
Assay: switch fluorescence ratio, 500 uM ATP over buffer (Cy3 cluster intensity, sum of 5 cycles each) (fold (ratio)); higher = stronger signal-on switching upon ATP binding; sequences stand for … in TCGTCGGCAGCGTCAGATGTGTATAAGAGACAGTTTTTTTTTTTTTTTTTTTTTTTTT…TC
Details: aptamer strand: ATP DNA aptamer (quencher-CACCTGGGGGAGTATTGCGGAGGAAGG + anchor), 100 nM annealed; ATP concentration: 500 uM; one replicate
Method in brief: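 Switching-strand clusters labelled with Cy3 on a modified Illumina MiSeq flow-cell were annealed to 100 nM quencher-labelled ATP aptamer, imaged in selection buffer, and re-imaged after 15 min with 500 uM ATP at 22 °C. This was done over five cycles with NaOH stripping and re-annealing in between. The fluorescence ratio is summed target-cycle over summed buffer-cycle Cy3 intensity per cluster, averaged per switch-domain sequence, excluding clusters outside 100-1000 RFU.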
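Further: ATP exposure 15 min at 22 °C before imaging.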

Row | Sequence | switch fluorescence ratio
1 | GGGTCTAAAG | 1.05
2 | TTTGTATAAA | 0.975
3 | CTTTATCGAG | 1.07
4 | CCTAGCCCGT | 1.04
5 | AGCAAAGAGG | 1.03
6 | TGCGATTATT | 1.01
7 | AGATGGCTTC | 1.01
8 | AGAAGATCGG | 1.02
9 | TTGACACCTA | 1.02
10 | ACGACTCAAC | 2.69
11 | AAACCTTTAG | 1.03
12 | TTAGGCCAGT | 1.14
13 | GGCACAGAT | 1.03
14 | CTATATTTGG | 0.96
15 | TACTTGCAGT | 1
16 | ATTAGGTTTG | 0.974
17 | TCTAGTTGCT | 1.01
18 | ATTCATTTAT | 0.995
19 | TTCTGTAGAA | 0.977
20 | CACATCAAGG | 1.05
21 | GAGACCCTTC | 1
22 | GATACTCAAT | 0.985
23 | GACTTGATTG | 0.937
24 | TGTGCTGTT | 0.944
25 | CTCATAAGCA | 1.05
26 | TGCGGCTCTA | 0.961

Row | Sequence | switch fluorescence ratio
27 | GATCTCCGTG | 1.11
28 | AAGCATTCCG | 1.09
29 | TTTACTACCG | 1.4
30 | CCTTTGCCAC | 3.98
31 | TGGGGCTTCC | 1.81
32 | GTTTTCTCGC | 0.99
33 | TTAACTTATT | 0.931
34 | TGTAGCCAGA | 0.982
35 | ATTGGATGTA | 1.01
36 | TGCAAGTCGT | 1.02
37 | GGTTGGGCCG | 0.985
38 | AGGATGGTCT | 1
39 | CGGTATTTTC | 1.09
40 | ATTGCTTATA | 1.02
41 | GTATAAGCGA | 1.02
42 | CGGTCTTACG | 0.989
43 | CACAACTGAT | 1.03
44 | GTAGTAAAGT | 1.01
45 | TCGAAATGTT | 0.984
46 | AGTGTCAAGG | 0.997
47 | GGTTACTACA | 1
48 | TTGGGTGTTC | 0.959
49 | TTAAAACAC | 1.05
50 | GTACTTTCCA | 0.965
51 | TGTAATTTGG | 1.01
52 | CAGCAAACGT | 1.43

Row | Sequence | switch fluorescence ratio
53 | CCGGCGACCT | 1.23
54 | TATTCGCCTG | 0.97
55 | CCAGATGGGA | 0.964
56 | TCTAGACCGC | 1.09
57 | TTCCTGGTG | 2.22
58 | ACGCCACAAA | 1.53
59 | CGAATGCGAT | 1.23
60 | TTCTCCCGAG | 1.15
61 | CGATGGGCT | 1.01
62 | TCCTACCACT | 1.26
63 | GCGACCTAAT | 1.06
64 | TTGCGCTGGC | 1.13
65 | ACCAGAGAGC | 0.926
66 | GGGTTCTTTC | 1.01
67 | GGGTCAGCGA | 1.04
68 | GCGGGTTC | 0.927
69 | TCTCGTTGTA | 1.03
70 | GGGGCGCTCG | 1.04
71 | TTAGCGAAAA | 1.01
72 | GGCCGCAC | 2.9
73 | CGCGGCCTGA | 1
74 | CGGTAGCCGT | 0.961
75 | CGCGATTTCC | 2.13
76 | CTGTCGGCGT | 0.963
77 | GGCTTACGCG | 1.03
78 | CATACGGCAT | 1.06

Row | Sequence | switch fluorescence ratio
79 | TACGAGTGGC | 0.929
80 | TTGGGAAGAA | 0.983
81 | CACGCTACA | 1.34
82 | TGGAGAGTTT | 0.98
83 | CGGTTTCCTA | 0.997
84 | ATTTTAGTCA | 1.03
85 | GGGAGAGACG | 0.915
86 | ATGTGCGGGT | 0.969
87 | TGGGTGTTAG | 1.02
88 | GACTCCCTCT | 1.26
89 | GCAATGGAAG | 1.01
90 | GTTAGCAGTT | 1.03
91 | TGGAACATAT | 1.02
92 | ACCGCGTCTT | 1.02
93 | TAGTGCCGAG | 0.995
94 | GATTAGCCAG | 0.993
95 | GAGGTTGCCA | 0.936
96 | CGTGTGTAGC | 0.984
97 | GAATTACATT | 0.986
98 | CAAGAGTAGC | 0.932
99 | ATAAAGTTTG | 0.945
100 | GCCCATGCTT | 1
101 | CTCGCGACGT | 1.05
102 | TTACTCGTGA | 1.02
103 | CAGTCCAGCA | 1.11
104 | CCGAATTCCG | 1.07

Row | Sequence | switch fluorescence ratio
105 | ATCAACTGTT | 0.969
106 | TTCGTTCCTC | 1.42
107 | AACGGCGCTT | 1.07
108 | GTGGACATTT | 1.02
109 | GTTGAAGGC | 1.1
110 | CCACTAGGCA | 1.04
111 | TCTCTGTAGA | 1.01
112 | CCTCAGGTAG | 2.14
113 | AATCTTGTCT | 0.953
114 | GGATCCGCGC | 3.65
115 | CTCGTTCATT | 0.988
116 | GATGCCGAGG | 0.978
117 | TTATGTCGCC | 0.93
118 | TGCTGTTTAA | 0.992
119 | AACTTCGGG | 1.02
120 | TGCTTGGAAT | 1.01
121 | GATACGCGCA | 1.02
122 | TTGGAGTACG | 1.02
123 | TGAATTTC | 0.971
124 | TAAGCCGTGG | 1.04
125 | TAGGCATGGA | 1
126 | GCATCGGTAC | 1.29
127 | TGAGTTAAT | 0.999
128 | TAGTGGGGG | 0.984
129 | GTTGCTCTCG | 0.983
130 | TTAATTTCCA | 1.08

Row | Sequence | switch fluorescence ratio
131 | GGTAGGAATC | 1.02
132 | CTAAATCGAA | 1.03
133 | ATAATTTCT | 1.06
134 | TCGGTTATAT | 0.975
135 | CGGTAAAGGT | 1.03
136 | TTGGTAAGG | 0.95
137 | TGTGTCTATT | 0.97
138 | ATGTCAATGT | 1.03
139 | CAGCTACAGC | 0.999
140 | GCTTTTCACC | 0.97
141 | AGCTTATTTG | 1.01
142 | CTTACATGGG | 1
143 | CTCACCAATT | 1.26
144 | CAACTAGATA | 0.987
145 | TTGCAGCTGA | 1.04
146 | GGGGCGTGAA | 0.978
147 | TTTGTCATGA | 1.03
148 | ATTTTTAAGT | 1
149 | GTTGATCAAA | 1.02
150 | CATTAAGTG | 0.979
151 | AATCTATTT | 1.02
152 | CTCACGACCT | 1.39
153 | CCACACTATT | 1.11
154 | CTGCCTACC | 1.26
155 | CATTGGTTAC | 1
156 | AAATCGTGCT | 0.988

Row | Sequence | switch fluorescence ratio
157 | GTGAGAAGCA | 0.963
158 | GGATAACGG | 0.965
159 | AGTTGAATGC | 1.04
160 | TCCGCGAGTG | 1.98
161 | GTTTTCGGCA | 0.95
162 | TAGCTCGGAC | 1.01
163 | TGGCATACTT | 1.63
164 | CGGAGGGCAG | 1.02
165 | CGCTAATAGA | 1.01
166 | AGCCACAC | 1.06
167 | TTTAGTATGC | 1.02
168 | CTTTACGACA | 1.25
169 | CGACCTAATA | 1.36
170 | ATAGTTGCGA | 1.03
171 | TCAGAGGAGC | 1.06
172 | GCGAGGGCTC | 1
173 | GGTAATTCGT | 0.978
174 | GTAGCTTCTC | 1.55
175 | CTAAGCTATG | 1.01
176 | TGGTACGCGA | 1.35
177 | TCGCTTTCCT | 1.1
178 | AGGACGTTT | 1.09
179 | GATTCAATCC | 0.982
180 | GACAGTATA | 1.07
181 | GTGAAGAACG | 1.01
182 | CTGCTTGAGC | 1.04

Row | Sequence | switch fluorescence ratio
183 | ATGATTCTTG | 1.04
184 | CGCTAGTTGT | 1.02
185 | GATACTCCTA | 0.999
186 | AGCTTGTGGC | 0.971
187 | GATACACTAG | 1.04
188 | CCGGT | 0.998
189 | ACGTTGGCAT | 1.04
190 | GTTAGAAGTA | 0.983
191 | TCCTGTCC | 1.4
192 | GCAGATCAAC | 1.07
193 | CCAGGCACAT | 1.21
194 | GTTGGACAG | 0.96
195 | GGTTTTACGA | 1
196 | CATGTTTCAA | 1
197 | CTTGTCTGCC | 0.997
198 | TTATGGTAGG | 1.01
199 | TTCGTAAGAT | 1.08
200 | GGGTCGAGGA | 0.988
201 | TGGGGCTTCT | 1.06
